# Reference: the supplement of paper PMC3334620
# Whole data set: some 33,000 sequences, median “E-score (-0.5 to 0.5)” near -0.04, cut for the highest 2% near 0.36. This is one part of the list.
# Biological target: T1, Hmlalpha2 (UniProt P0CY09)
# T1 sequence: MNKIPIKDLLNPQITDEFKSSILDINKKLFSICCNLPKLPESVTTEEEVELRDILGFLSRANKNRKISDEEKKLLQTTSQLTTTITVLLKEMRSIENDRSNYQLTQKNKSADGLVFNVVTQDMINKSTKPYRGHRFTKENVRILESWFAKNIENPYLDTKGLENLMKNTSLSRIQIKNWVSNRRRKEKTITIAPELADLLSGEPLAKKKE
# Experiment: PBM E-score (8-mer binding enrichment) (E-score (-0.5 to 0.5)); higher = stronger / more preferred TF binding; most listed sequences are background and not binding sites
# Settings: protein concentration: 200 nM; construct: GST-full length
# Protocol: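 Universal 'all 10-mer' protein binding microarrays (Agilent AMADID 015681) probed with GST-tagged S. cerevisiae TFs (full-length or DBD) made by in vitro transcription/translation (PURExpress), about 100-200 nM. Bound TF was detected with fluorescent anti-GST. Each ungapped 8-mer (which stands for itself and its reverse complement) is scored by the PBM enrichment score (E-score), a modified Wilcoxon-Mann-Whitney statistic from -0.5 to +0.5, computed with the Universal PBM Analysis Suite. Scale: above 0.35 generally sequence-specific binding.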
row,Sequence,PBM E-score
1,CAGTTCAC,0.104
2,GTGCGCGA,-0.198
3,CACACAAA,0.126
4,ATTAACAG,0.261
5,ATATTGTG,0.136
6,TAACTGAA,0.016
7,CTGAGCTA,-0.0256
8,TTAGAAAA,0.0398
9,ACTTTTCG,0.0146
10,ACCACGGA,-0.171
11,GCAGTGCA,-0.146
12,CACTTGTA,0.213
13,CCTGGCAG,-0.147
14,CCGTGGAA,-0.0844
15,ACTGCAAA,0.0453
16,TATGCTGA,0.0494
17,CCCTAACC,-0.295
18,CCTACTAA,-0.0964
19,TGCGAGAA,-0.206
20,CCGGTTCC,-0.243
21,ACTTATCG,-0.274
22,CGAGCCCG,-0.15
23,CAACATTA,0.293
24,ACCACTCT,-0.283
25,ACGTCGAC,0.136

row,Sequence,PBM E-score
1,ATACCAAG,0.149
2,ACTCCTAC,-0.0242
3,AGACTCGG,-0.282
4,CTGCCCAC,-0.0615
5,GCATAAGC,0.119
6,CCCAGAGA,-0.25
7,ACCATACC,-0.367
8,AATATACC,-0.0669
9,CATGTGTC,0.152
10,AAGTGGGC,-0.0131
11,ACGAGGAG,-0.089
12,AAAAGTTT,0.0603
13,CCCTACGA,-0.0973
14,CGACCTCA,-0.0691
15,ATGAACCA,0.162
16,ATCAGCAT,0.155
17,AGGGTCTG,-0.296
18,GATTGACA,0.293
19,AGTCTAAT,0.118
20,CCTGTGCA,-0.00896
21,CAGACCAG,-0.167
22,CCAAAGAA,-0.0602
23,AGACATTC,0.0901
24,AGTACCGA,-0.2
25,AGAGCGCC,-0.0601

row,Sequence,PBM E-score
1,CCACAGGC,-0.337
2,GCCACAAC,0.076
3,AAGCCCGC,-0.159
4,GACTGATC,0.0656
5,AGCCATCG,-0.171
6,GATTGACC,-0.0676
7,ACGAGCCA,0.0562
8,ATAGATAA,-0.0423
9,ACTCGACC,-0.0795
10,CACTGTAG,0.172
11,CAGCACTG,-0.243
12,GGCAAGGA,-0.139
13,CCGGTAAA,-0.0308
14,AAGAGAGC,-0.247
15,AAGTCGCA,0.0216
16,CCATAAGC,-0.206
17,ATGGCGCC,-0.249
18,AGACGGCA,-0.244
19,TATGTCAA,0.426
20,CCGATCCG,-0.204
21,AATCGCGA,-0.0775
22,AAGCGGGC,-0.371
23,CCTATCGC,-0.169
24,ATACCTCG,0.112
25,AAATTGTT,0.109

row,Sequence,PBM E-score
1,CCACGCAC,-0.0131
2,ATATGGTC,-0.00104
3,ATCTGCCA,-0.149
4,CTCGCTTA,-0.0641
5,GGAGGGCC,-0.247
6,CTGACCTA,-0.0658
7,ACCACACA,0.215
8,ATGATTGA,0.113
9,ATAACCTG,-0.0623
10,ACAGCTGC,-0.0756
11,CATTGTAA,0.364
12,ACCGCTGC,-0.138
13,ACGACTCC,-0.141
14,CATCATGA,0.0884
15,AACCGCAG,-0.283
16,AGCTGAAT,-0.108
17,CATCAGTA,-0.027
18,CCTAACGC,0.163
19,CACTGTTA,0.0828
20,CGTTCCTC,-0.169
21,AACCGAGG,-0.324
22,CCCCGCCG,-0.367
23,GAGTTGTA,0.235
24,CATTAACA,0.409
25,AGTGGAAT,-0.0913

row,Sequence,PBM E-score
1,CGACTGAG,-0.223
2,ATAACTTA,0.288
3,ATTAAACA,0.322
4,AATATCTA,-0.00097
5,CAGCTCCC,-0.325
6,GGTGACGA,-0.051
7,GAACCTCC,-0.15
8,CACCTCAA,-0.0285
9,CCCTAGGG,-0.332
10,ATGACATC,0.113
11,AAAGACCA,-0.193
12,CTTGCCAA,0.015
13,TTCAGGAA,-0.148
14,CGCCTACG,-0.0054
15,ACTGAATG,-0.0924
16,GGAACCTA,-0.0811
17,ATTAGGCG,-0.111
18,AATAATCT,-0.0149
19,TGACCAAA,-0.0837
20,ATGAACGA,0.00742
21,GTTAGATA,0.111
22,CCGTAAGG,-0.316
23,CACATGCC,0.209
24,ACTCGCAT,0.146
25,CTTGGGGA,0.0516

row,Sequence,PBM E-score
1,AGTAAAGG,0.157
2,AGAGGTGG,-0.206
3,GAGCAGAC,-0.137
4,CACGCGAG,0.152
5,TGACAACA,0.306
6,ACTAGGCC,-0.32
7,GGCTTTTA,-0.0499
8,CGGTACCG,-0.0635
9,ATCGTAAC,0.156
10,ACGGTGGG,-0.215
11,AATATGTC,0.167
12,GCTGGTCC,-0.127
13,AAATAAGC,0.0535
14,ACTTGTAA,0.381
15,CGCGAGGA,-0.0954
16,CTGTCTAA,0.0701
17,TCTAGGCA,-0.106
18,CACGGTCG,-0.112
19,TCCAAGCA,-0.164
20,GATTCCGC,-0.101
21,CGAAAAGC,-0.239
22,TGTCGTAA,0.261
23,CCATTCGC,-0.334
24,CAGAGGAA,-0.186
25,CCCGTGTC,0.168

row,Sequence,PBM E-score
1,GCCAACTA,-0.0217
2,ATTTAGTC,0.0338
3,AGGGATCG,-0.0672
4,CGTGAGGC,-0.212
5,CAAGGCCA,-0.111
6,CACCTCAG,-0.226
7,CTCATCCC,-0.361
8,ACGACTAT,0.144
9,GGCGGGAA,-0.199
10,CAGATTGC,-0.07
11,ACCGCCCT,-0.0986
12,TGGATACA,0.17
13,CATCGGGC,-0.211
14,AAAGTAAG,0.114
15,ACGACTAA,0.0186
16,CTAAACAC,0.296
17,GGCGGACC,-0.316
18,CCCGTTGA,-0.113
19,GCCAGCAA,-0.128
20,ACACCCCC,-0.00773
21,CGCCGACG,0.00959
22,GTGGGAAC,-0.151
